Sequences and labels used below:
B1: NB149-97 VHH-hFc (Fc fusion)
chain: EVQVVESGGGLVQAGGGLRLSCAASERTFSSSSIGWFRQAPGKEREFVATMNRIGGHTFYADPVKGRFTISRDNAANTVYLQMSSLKPEDAAVYYCASSRIYSHSPRDYDYWSQGTQVTVSS[human IgG1 Fc with changes not written out]
B2: NB149-95 VHH-hFc (Fc fusion)
chain: QVQLVESGGGLVQAGGSLRLSCTASESGFSANYMGWYRQEAPGKERELVATINRFGSTNYADSVKGRFTISRDNAKNTVYLQMNSLKSEDTGVYYCRIMRPGNWYWGQGTQVTVSS[human IgG1 Fc with changes not written out]
B3: NB148-88 VHH-hFc (Fc fusion)
chain: QLQLVESGGGLVQPGGSHRLSCAVSVSTFTRYAMRWYRQAPGKEREWLTSIYSDGSSAYADSVKDRFTISLDNAKNMLYLQMNSLKPEDTAVYYCNANVDSKAYWGQGTQVTVAS[human IgG1 Fc with changes not written out]
B4: NB149-70 VHH-hFc (Fc fusion)
chain: QVQLVESGGGLVQPGGSLRLSCAASGSIFSGNAVAWYRQAPGKEREAVAVITRDGDTKYADSVKGRFTISRYNAKNIAYLQMNSLKPEDTAVYYCNTARGAAVDSWGQGTQVTVSS[human IgG1 Fc with changes not written out]
B5: NB148-35 VHH-hFc (Fc fusion)
chain: EVQVVESGGGLVQPGGSLRLSCGVSGSILALNTMRWYRQTPGNQREWVASIYSSGGSTGYADSVKGRFIISRDSAKNMMSLQMNSLKSEDTAVYYCNVQTPLNVYWGQGTQVTVSS[human IgG1 Fc with changes not written out]
B6: NB148-46 VHH-hFc (Fc fusion)
chain: EVQLVESGGGLVQAGGSLRLSCAASGSTFSSYPMGWYRQAPGKQRELVAAISSGGSTNYADSVKGRFTISRDNAKNTVYLQMNSLKPEDTAVYYCNTRSPRVPNDSWGQGTQVTVSS[human IgG1 Fc with changes not written out]
B7: NB148-25 VHH-hFc (Fc fusion)
chain: QVQLVESGGGLVQAGGSLRLSCAASGSTFGRIVMRWYRQAQGKQREWVASIYDSGSTSYSDPVQGRFTISRDNARNTVYLQMNSLRPADTAVYYCNLGTALSSYWGQGTQVTVSS[human IgG1 Fc with changes not written out]
B8: NB148-13 VHH-hFc (Fc fusion)
chain: QLQLVESGGGLVQAGGSLRLSCTASGSTSMSYGAKWFRRAPGKEREWVASVYRDGTTGYDDSVKGRFTISRDLAKNTVYLQMNSLRLEDTAVYYCTALNSWGQGTQVTVSS[human IgG1 Fc with changes not written out]
B9: NB149-31 VHH-hFc (Fc fusion)
chain: EVQVVESGGGLVQPGGSLRLSCAASGITFSGNYGGWFRQAPGEQRELVASMSSALGTKYADPVKGRFTISTDTAKNTVDLQMNSLGPEDTAVYYCYARVRLSRGGWGSEYWGQGTQVTVSS[human IgG1 Fc with changes not written out]
B10: NB149-81 VHH-hFc (Fc fusion)
chain: EVQLVESGGGLVQAGGALRLSCAASERTFSSSSMGWFRQAPGKEREFVAAINRIGGHIYYADSVKGRFTISKDNAKNTVYLQMSSLKPEDTAVYYCASSRIYSHSARDYDYWGQGTQVTVSS[human IgG1 Fc with changes not written out]
B11: NB148-27 VHH-hFc (Fc fusion)
chain: EVQVVESGGGLVQAGASLRLSCASSGRTISPIAMAWFRQAPGKERELVAGLTWTGRTYYSDSVKGRFTISRDNAKNTVYLQMDSLKFEDTAVYFCAAGDNPDRRGSSWSSSSVYEYWGQGTQVTVSS[human IgG1 Fc with changes not written out]
B12: NB149-34 VHH-hFc (Fc fusion)
chain: QLQLVESGGGLVQPGGSLRLSCAASGSVNSITAMGWYRQGPGNERELVAVITDRGRASYADSVKGRFAISMDNDKHTVYLQMDSLKPEDTAVYYCNAHRRTWPHPGDYWGQGTQVTVSS[human IgG1 Fc with changes not written out]

This experiment deals with monkey MSLN full-length protein on HEK293T cells (monkey). The experiment is described as follows: FACS, HEK293T-monkey MSLN cells.
Chain of monkey MSLN full-length protein on HEK293T cells (monkey) (chain, as listed by the source limits assumed, form in doubt): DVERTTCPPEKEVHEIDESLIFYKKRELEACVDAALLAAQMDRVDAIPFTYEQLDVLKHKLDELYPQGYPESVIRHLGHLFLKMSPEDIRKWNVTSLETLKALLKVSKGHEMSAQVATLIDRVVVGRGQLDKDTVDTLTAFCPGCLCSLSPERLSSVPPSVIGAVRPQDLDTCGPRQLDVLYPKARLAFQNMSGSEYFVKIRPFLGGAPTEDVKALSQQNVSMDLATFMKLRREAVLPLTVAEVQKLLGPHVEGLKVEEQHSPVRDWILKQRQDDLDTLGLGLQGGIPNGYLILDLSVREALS
B1 yielded a Max MFI of 1520.

For the molecule B2, the EC50 was 1.96 nM and the Max MFI is 20100. The molecule B3 registered a Max MFI of 136.

Regarding B4, the 50% effective concentration (EC50) came out at 0.91 nM and the Max MFI was 16900.

In turn, B5 showed a Max MFI of 89. The molecule B6 returned an EC50 of 0.88 nM and a Max MFI of 15600. Consider B7, for which the Max MFI came to 78. For the molecule B8, the Max MFI was found to be 106. As to B9, the EC50 was 0.89 nM and the Max MFI was determined as 16600.

B10 had a Max MFI of 5630. B11 registered an EC50 of 1.57 nM and a Max MFI of 16700.

In the case of B12, the concentration for a half-maximal effect (EC50) worked out at 0.88 nM and the Max MFI was found to be 16000.

One may read the EC50 as the concentration giving half of the maximal effect.

These data come from patent US20240124563A1.
